The results in this text go back to a collection of fitness landscapes (doi:10.1126/science.1257360).

Some of the results follow. Where only a bound is given, the exact number is not on record here.

B1: PhoQ; a variant is named by its letters at X, in order, P23837 (parent)
chain: MKKLLRLFFPLSLRVRFLLATAAVVLVLSLAYGMVALIGYSVSFDKTTFRLLRGESNLFYTLAKWENNKLHVELPENIDKQSPTMTLIYDENGQLLWAQRDVPWLMKMIQPDWLKSNGFHEIEADVNDTSLLLSGDHSIQQQLQEVREDDDDAEMTHSVAVNVYPATSRMPKLTIVVVDTIPVELKSSYMVWSWFIYVLSANLLLVIPLLWVAAWWSLRPIEALAKEVRELEEHNRELLNPATTRELTSLVRNLNRLLKSERERYDKYRTTLTDLTHSLKTPLXXLQXXLRSLRSEKMSVSDAEPVMLEQISRISQQIGYYLHRASMRGGTLLSRELHPVAPLLDNLTSALNKVYQRKGVNISLDISPEISFVGEQNDFVEVMGNVLDNACKYCLEFVEISARQTDEHLYIVVEDDGPGIPLSKREVIFDRGQRVDTLRPGQGVGLAVAREITEQYEGKIVAGESMLGGARMEVIFGRQHSAPKDE

Variants of B1 are the subject of this test. The experiment in a line: enrichment ratio after two sorts for PhoP signalling (ratio (wild type AVST 3.29)); higher = more functional. Conditions: with PhoP (E. coli).
For the variant YCKH, the enrichment ratio was at most 0.25. For SALF the value was 9.67. The result for LDWQ reads at most 0.25; that for SSTD, at most 0.25; that for FMAL, at most 0.25. For TNCQ the value was at most 0.25; for QQWC, at most 0.25; for KRQP, at most 0.25. As for RYFG, the enrichment ratio is at most 0.25. In the case of VIIW, the enrichment ratio was at most 0.25. The result for VYHY reads at most 0.25. For HWNV the value was at most 0.25. The result for KLGQ reads at most 0.25; that for ICYR, at most 0.25.

Take AERG: the enrichment ratio is at most 0.25. The result for RFFG reads 0.794; that for QQFM, 4.13; that for ANVV, 11.6.

Turning to TPTS, the enrichment ratio is at most 0.25. For STIQ, the enrichment ratio turned out to be 14.

Turning to SPQQ, the enrichment ratio is at most 0.25.

For MKHT, the enrichment ratio is at most 0.25.

Take KHGN: the enrichment ratio is at most 0.25. The result for YALC reads 3.77; that for IYWI, at most 0.25. For LTWY the value was 2.54; for NLGK, at most 0.25. For IYEW the value was at most 0.25; for QHHR, at most 0.25; for NTKV, at most 0.25.

For LRFG, the enrichment ratio was at most 0.25. The result for VKAW reads at most 0.25; that for KHQP, at most 0.25. Regarding PFNM, the enrichment ratio was at most 0.25. For MDGT the value was at most 0.25.

In the case of AWPG, the enrichment ratio is at most 0.25. The result for YMTW reads at most 0.25; that for VAYQ, at most 0.25. As for LGRC, the enrichment ratio was at most 0.25. For FFNF the value was at most 0.25; for RTFE, at most 0.25. For ERWA the value was at most 0.25.

EIAD: the enrichment ratio is at most 0.25. For PNNL the value was at most 0.25; for HKHR, at most 0.25; for NPLY, at most 0.25. For WPET the value was at most 0.25. Regarding FSRA, the enrichment ratio was at most 0.25. On to QMAH, for which the enrichment ratio was at most 0.25. The result for VMAK reads at most 0.25; that for MYDP, at most 0.25; that for SCIL, 0.31. The result for RYRP reads at most 0.25.

For MKRK, the enrichment ratio was at most 0.25. The result for HMLI reads at most 0.25; that for YPKN, at most 0.25; that for NSPH, at most 0.25. For MVSP, the enrichment ratio was at most 0.25. The result for ISTC reads at most 0.25; that for FQLA, at most 0.25. The result for NEGS reads at most 0.25. Regarding ETDC, the enrichment ratio is at most 0.25. The result for YWLN reads at most 0.25. The result for HLAN reads at most 0.25; that for EMEP, at most 0.25. In the case of IQFG, the enrichment ratio was at most 0.25.

For WDHH, the enrichment ratio is at most 0.25. The result for WFKI reads at most 0.25; that for DNYF, at most 0.25. The result for YELK reads at most 0.25; that for HWNM, at most 0.25; that for FQLD, 0.917. The result for DLGS reads at most 0.25. In the case of HFHC, the enrichment ratio was at most 0.25.

For WDPI, the enrichment ratio was at most 0.25. As to MKMK, the enrichment ratio is at most 0.25. For SIHG the value was at most 0.25; for DMYM, at most 0.25; for YASQ, at most 0.25.

As for DGAR, the enrichment ratio was at most 0.25. The result for LCIK reads at most 0.25; that for NAAS, at most 0.25; that for KIQV, at most 0.25. For KQDM the value was at most 0.25. For HEEA the value was at most 0.25. SIGM: the enrichment ratio came out at 9.86. For NKCN the value was at most 0.25; for LNND, at most 0.25.

For the variant EDRY, the enrichment ratio is at most 0.25. The result for GRFC reads at most 0.25; that for KICY, at most 0.25; that for ENHH, at most 0.25. For MQCD the value was 0.989; for HRES, at most 0.25; for SQYG, at most 0.25. The result for YGCA reads 0.382; that for YDSA, at most 0.25. Regarding LMDN, the enrichment ratio is at most 0.25.

For the variant QNLA, the enrichment ratio was at most 0.25.

Regarding GQWH, the enrichment ratio is at most 0.25.

As to RIDY, the enrichment ratio is at most 0.25.

Take GTEH: the enrichment ratio is at most 0.25. The result for MGAP reads at most 0.25; that for SACT, 14; that for YDMM, at most 0.25. The result for FLWQ reads at most 0.25. For EHST the value was at most 0.25; for NFSL, at most 0.25. In the case of GSGW, the enrichment ratio is at most 0.25. The result for FPLM reads at most 0.25; that for AEGL, 1.47. With AFQL, the enrichment ratio was at most 0.25. As for FWKK, the enrichment ratio is at most 0.25. The result for DDCD reads at most 0.25.

Regarding QTFR, the enrichment ratio is at most 0.25. Turning to EFFM, the enrichment ratio was at most 0.25. The result for ALIP reads at most 0.25. The result for YAFD reads at most 0.25; that for VAIQ, at most 0.25. For DWLT the value was at most 0.25; for KHGY, at most 0.25; for QMNI, 9.75. Turning to WQGS, the enrichment ratio is at most 0.25. For WWYC the value was at most 0.25; for SRRP, at most 0.25; for AYWY, at most 0.25.

On to RCKQ, for which the enrichment ratio is at most 0.25. The result for VCEP reads at most 0.25. On to NQRI, for which the enrichment ratio was at most 0.25. For KAWY the value was at most 0.25.

Regarding SYSH, the enrichment ratio was at most 0.25. The result for YKGF reads at most 0.25; that for DKDM, at most 0.25; that for CFVP, at most 0.25. For TMNL, the enrichment ratio came to 5.04. MCYM: the enrichment ratio is 14.1.

For VWEY, the enrichment ratio was at most 0.25. For IFDI the value was at most 0.25. The result for MMVR reads at most 0.25; that for RYMC, at most 0.25. Take LKDN: the enrichment ratio is at most 0.25.

Take GAKM: the enrichment ratio was at most 0.25. For LNRH the value was at most 0.25. The result for MPTD reads at most 0.25; that for SMKI, at most 0.25; that for ADLN, 6.6. The result for MFQE reads at most 0.25. On to SPDR, for which the enrichment ratio is at most 0.25. For SEFR the value was at most 0.25; for TMKT, at most 0.25; for LATR, at most 0.25. For MIPP the value was 0.84; for FKQQ, at most 0.25.
